Measurements as given in PMC9911399, “Two distinct binding modes provide the RNA-binding protein RbFox with extraordinary sequence specificity”.
Residue numbers refer to the chain shown, from its start. Some of the results follow.

T1: RBFOX1 RRM RbFoxmut (Fox-RRM*) (Homo sapiens, UniProt Q9NWB1 109-208, R118D;E147R;N151S;E152T)
T1 sequence: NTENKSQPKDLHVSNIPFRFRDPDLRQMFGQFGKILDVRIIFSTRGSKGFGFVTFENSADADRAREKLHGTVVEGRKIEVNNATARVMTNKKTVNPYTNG

B1: CAGGGUC (DNA:RNA)
RNA: GGGAGACCGGAAUUCAGAUUGUCCCAGGGUCUUAAAUCCCGUCGUAGCCACCA
DNA 1: CAATCTGAATTCCGGTCTCCC
DNA 2: TGGTGGCTACGACGGGATT
B2: CGUCCGU (DNA:RNA)
RNA: B1 RNA with A26G, G27U, G28C, G29C, U30G, C31U
DNA 1: CAATCTGAATTCCGGTCTCCC
DNA 2: TGGTGGCTACGACGGGATT
B3: GAAUGGA (DNA:RNA)
RNA: B1 RNA with C25G, G27A, G28U, U30G, C31A
DNA 1: CAATCTGAATTCCGGTCTCCC
DNA 2: TGGTGGCTACGACGGGATT
B4: UGGUUGU (DNA:RNA)
RNA: B1 RNA with C25U, A26G, G28U, G29U, U30G, C31U
DNA 1: CAATCTGAATTCCGGTCTCCC
DNA 2: TGGTGGCTACGACGGGATT
B5: UCUUAUG (DNA:RNA)
RNA: B1 RNA with C25U, A26C, G27U, G28U, G29A, C31G
DNA 1: CAATCTGAATTCCGGTCTCCC
DNA 2: TGGTGGCTACGACGGGATT
B6: GACUUGA (DNA:RNA)
RNA: B1 RNA with C25G, G27C, G28U, G29U, U30G, C31A
DNA 1: CAATCTGAATTCCGGTCTCCC
DNA 2: TGGTGGCTACGACGGGATT
B7: UGACACA (DNA:RNA)
RNA: GGGAGACCGGAAUUCAGAUUGUCCUGACACAUUAAAUCCCGUCGUAGCCACCA
DNA 1: CAATCTGAATTCCGGTCTCCC
DNA 2: TGGTGGCTACGACGGGATT
B8: GAAGCCU (DNA:RNA)
RNA: B1 RNA with C25G, G27A, G29C, U30C, C31U
DNA 1: CAATCTGAATTCCGGTCTCCC
DNA 2: TGGTGGCTACGACGGGATT
B9: UCGCCCA (DNA:RNA)
RNA: B7 RNA with G26C, A27G, A29C
DNA 1: CAATCTGAATTCCGGTCTCCC
DNA 2: TGGTGGCTACGACGGGATT
B10: GCGCUGC (DNA:RNA)
RNA: B1 RNA with C25G, A26C, G28C, G29U, U30G
DNA 1: CAATCTGAATTCCGGTCTCCC
DNA 2: TGGTGGCTACGACGGGATT
B11: CUUUAGC (DNA:RNA)
RNA: B1 RNA with A26U, G27U, G28U, G29A, U30G
DNA 1: CAATCTGAATTCCGGTCTCCC
DNA 2: TGGTGGCTACGACGGGATT
B12: GACGAAU (DNA:RNA)
RNA: B1 RNA with C25G, G27C, G29A, U30A, C31U
DNA 1: CAATCTGAATTCCGGTCTCCC
DNA 2: TGGTGGCTACGACGGGATT
B13: GCUACGA (DNA:RNA)
RNA: B7 RNA with U25G, G26C, A27U, C28A, A29C, C30G
DNA 1: CAATCTGAATTCCGGTCTCCC
DNA 2: TGGTGGCTACGACGGGATT
B14: CAAACUC (DNA:RNA)
RNA: B1 RNA with G27A, G28A, G29C
DNA 1: CAATCTGAATTCCGGTCTCCC
DNA 2: TGGTGGCTACGACGGGATT
B15: CCCCCCU (DNA:RNA)
RNA: B7 RNA with U25C, G26C, A27C, A29C, A31U
DNA 1: CAATCTGAATTCCGGTCTCCC
DNA 2: TGGTGGCTACGACGGGATT
B16: CAUACAA (DNA:RNA)
RNA: B1 RNA with G27U, G28A, G29C, U30A, C31A
DNA 1: CAATCTGAATTCCGGTCTCCC
DNA 2: TGGTGGCTACGACGGGATT
B17: ACUUAAA (DNA:RNA)
RNA: B7 RNA with U25A, G26C, A27U, C28U, C30A
DNA 1: CAATCTGAATTCCGGTCTCCC
DNA 2: TGGTGGCTACGACGGGATT
B18: CUGCUUC (DNA:RNA)
RNA: B1 RNA with A26U, G28C, G29U
DNA 1: CAATCTGAATTCCGGTCTCCC
DNA 2: TGGTGGCTACGACGGGATT
B19: UUCACUC (DNA:RNA)
RNA: B1 RNA with C25U, A26U, G27C, G28A, G29C
DNA 1: CAATCTGAATTCCGGTCTCCC
DNA 2: TGGTGGCTACGACGGGATT
B20: CGAGGCG (DNA:RNA)
RNA: B1 RNA with A26G, G27A, U30C, C31G
DNA 1: CAATCTGAATTCCGGTCTCCC
DNA 2: TGGTGGCTACGACGGGATT
B21: AUCAUUU (DNA:RNA)
RNA: B1 RNA with C25A, A26U, G27C, G28A, G29U, C31U
DNA 1: CAATCTGAATTCCGGTCTCCC
DNA 2: TGGTGGCTACGACGGGATT
B22: AGGCGUG (DNA:RNA)
RNA: B1 RNA with C25A, A26G, G28C, C31G
DNA 1: CAATCTGAATTCCGGTCTCCC
DNA 2: TGGTGGCTACGACGGGATT
B23: GAAAUCU (DNA:RNA)
RNA: B7 RNA with U25G, G26A, C28A, A29U, A31U
DNA 1: CAATCTGAATTCCGGTCTCCC
DNA 2: TGGTGGCTACGACGGGATT
B24: GGCACAA (DNA:RNA)
RNA: B7 RNA with U25G, A27C, C28A, A29C, C30A
DNA 1: CAATCTGAATTCCGGTCTCCC
DNA 2: TGGTGGCTACGACGGGATT
B25: CGAAGUU (DNA:RNA)
RNA: B1 RNA with A26G, G27A, G28A, C31U
DNA 1: CAATCTGAATTCCGGTCTCCC
DNA 2: TGGTGGCTACGACGGGATT
B26: AUACUCU (DNA:RNA)
RNA: B7 RNA with U25A, G26U, A29U, A31U
DNA 1: CAATCTGAATTCCGGTCTCCC
DNA 2: TGGTGGCTACGACGGGATT
B27: CAGCAGU (DNA:RNA)
RNA: B1 RNA with G28C, G29A, U30G, C31U
DNA 1: CAATCTGAATTCCGGTCTCCC
DNA 2: TGGTGGCTACGACGGGATT
B28: AGUUUAC (DNA:RNA)
RNA: B1 RNA with C25A, A26G, G27U, G28U, G29U, U30A
DNA 1: CAATCTGAATTCCGGTCTCCC
DNA 2: TGGTGGCTACGACGGGATT
B29: AUCACCC (DNA:RNA)
RNA: B1 RNA with C25A, A26U, G27C, G28A, G29C, U30C
DNA 1: CAATCTGAATTCCGGTCTCCC
DNA 2: TGGTGGCTACGACGGGATT
B30: CUGAAGC (DNA:RNA)
RNA: B1 RNA with A26U, G28A, G29A, U30G
DNA 1: CAATCTGAATTCCGGTCTCCC
DNA 2: TGGTGGCTACGACGGGATT
B31: AGUAGCC (DNA:RNA)
RNA: B1 RNA with C25A, A26G, G27U, G28A, U30C
DNA 1: CAATCTGAATTCCGGTCTCCC
DNA 2: TGGTGGCTACGACGGGATT

Molecular target: T1, RBFOX1 RRM RbFoxmut (Fox-RRM*)
Assay: EMSA; HiTS-Eq, 1 nM pool, 10 min; buffer printed only for the single-RNA assays: 10 mM Tris pH 7.5, 150 mM NaCl, 3.4 mM EDTA, 0.001% NP-40, 30 C
Details: tags: His6 N-terminal (pET28a); label: 5' 32P
Summary of the method: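 Purified wild-type or mutant RbFox RRM at increasing concentrations was equilibrated with 1 nM of 5′-radiolabelled RNA carrying 7 randomized nucleotides for 10 min in 50 µL. Unbound RNA was separated by 8% native PAGE and sequenced. Relative association constants came from read-count changes of each RNA species compared with the control reaction, normalised to the cognate motif.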

| Binder | binding signal |
| --- | --- |
| B1 | 0.146 KA relative to UGCAUGU |
| B2 | 0.119 KA relative to UGCAUGU |
| B3 | 0.165 KA relative to UGCAUGU |
| B4 | 0.396 KA relative to UGCAUGU |
| B5 | 0.139 KA relative to UGCAUGU |
| B6 | 0.151 KA relative to UGCAUGU |
| B7 | 0.0934 KA relative to UGCAUGU |
| B8 | 0.0715 KA relative to UGCAUGU |
| B9 | 0.071 KA relative to UGCAUGU |
| B10 | 0.086 KA relative to UGCAUGU |
| B11 | 0.129 KA relative to UGCAUGU |
| B12 | 0.0973 KA relative to UGCAUGU |
| B13 | 0.115 KA relative to UGCAUGU |
| B14 | 0.0603 KA relative to UGCAUGU |
| B15 | 0.0549 KA relative to UGCAUGU |
| B16 | 0.0704 KA relative to UGCAUGU |

| Binder | binding signal |
| --- | --- |
| B17 | 0.115 KA relative to UGCAUGU |
| B18 | 0.128 KA relative to UGCAUGU |
| B19 | 0.0685 KA relative to UGCAUGU |
| B20 | 0.128 KA relative to UGCAUGU |
| B21 | 0.113 KA relative to UGCAUGU |
| B22 | 0.224 KA relative to UGCAUGU |
| B23 | 0.0496 KA relative to UGCAUGU |
| B24 | 0.0678 KA relative to UGCAUGU |
| B25 | 0.104 KA relative to UGCAUGU |
| B26 | 0.0727 KA relative to UGCAUGU |
| B27 | 0.0631 KA relative to UGCAUGU |
| B28 | 0.0981 KA relative to UGCAUGU |
| B29 | 0.0508 KA relative to UGCAUGU |
| B30 | 0.0885 KA relative to UGCAUGU |
| B31 | 0.124 KA relative to UGCAUGU |
